The text below walks through data of publication PMC4336329 (PLoS ONE, 2015).

Molecules are shown by their SMILES. Among all 310,000 compounds or so, about 14,000 (4.5%) showed an effect of 50% or more. Effects have a minus sign here. This is one part of the list.
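Further: peak tail current of the secondary pulse compared with the same well before compound.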

human ether-à-go-go-related gene (hERG) potassium channel, sequence (Q12809 whole entry, looked up): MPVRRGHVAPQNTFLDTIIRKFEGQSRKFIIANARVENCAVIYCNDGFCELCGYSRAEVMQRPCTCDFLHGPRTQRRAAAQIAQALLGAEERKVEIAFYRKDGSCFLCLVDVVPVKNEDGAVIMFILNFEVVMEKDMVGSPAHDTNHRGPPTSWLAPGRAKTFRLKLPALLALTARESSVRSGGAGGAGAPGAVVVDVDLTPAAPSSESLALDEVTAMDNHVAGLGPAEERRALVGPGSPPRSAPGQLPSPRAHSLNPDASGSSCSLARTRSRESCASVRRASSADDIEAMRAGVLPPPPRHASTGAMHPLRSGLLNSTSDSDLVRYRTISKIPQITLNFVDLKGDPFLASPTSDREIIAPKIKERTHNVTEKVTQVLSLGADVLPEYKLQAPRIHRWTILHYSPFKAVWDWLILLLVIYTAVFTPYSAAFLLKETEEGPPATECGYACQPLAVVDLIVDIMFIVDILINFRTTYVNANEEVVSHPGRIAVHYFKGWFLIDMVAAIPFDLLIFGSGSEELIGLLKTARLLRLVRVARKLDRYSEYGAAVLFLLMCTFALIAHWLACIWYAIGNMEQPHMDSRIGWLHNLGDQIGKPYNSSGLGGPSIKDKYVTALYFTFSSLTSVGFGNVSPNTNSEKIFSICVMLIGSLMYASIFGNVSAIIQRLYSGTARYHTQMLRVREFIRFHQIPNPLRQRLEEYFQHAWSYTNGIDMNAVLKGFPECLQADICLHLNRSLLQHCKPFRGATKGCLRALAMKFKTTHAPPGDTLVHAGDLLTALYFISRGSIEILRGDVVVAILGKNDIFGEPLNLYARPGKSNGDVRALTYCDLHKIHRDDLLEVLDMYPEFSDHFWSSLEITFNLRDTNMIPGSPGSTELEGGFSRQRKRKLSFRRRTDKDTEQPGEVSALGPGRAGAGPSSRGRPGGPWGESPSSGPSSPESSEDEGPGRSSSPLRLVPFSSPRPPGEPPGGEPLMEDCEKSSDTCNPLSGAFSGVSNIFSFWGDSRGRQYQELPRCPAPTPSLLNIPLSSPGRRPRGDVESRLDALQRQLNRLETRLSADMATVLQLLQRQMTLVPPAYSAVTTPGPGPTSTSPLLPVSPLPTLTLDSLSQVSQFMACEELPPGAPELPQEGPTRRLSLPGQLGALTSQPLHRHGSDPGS

This test concerns the target human ether-à-go-go-related gene (hERG) potassium channel (human, UniProt Q12809). In words: primary screen, population patch clamp on CHO cells stably expressing hERG.
Consider `O=C(c1cc(-c2ccc(F)cc2)on1)N1CCN(c2ccc(F)cc2)CC1`, for which the “hERG current change (%, negative = inhibition) at 10uM” value is recorded as 0.323%.
Turning to `C#CCOCCOCCOCCNc1nc(N2CCN(C(=O)[C@H]([C@@H](C)CC)n3cc([C@@H](N)Cc4ccc(O)cc4)nn3)CC2)nc(N2CCN(C(=O)[C@H](Cc3ccc(O)cc3)n3cc([C@@H](N)CC(C)C)nn3)CC2)n1.Cl`, the “hERG current change (%, negative = inhibition) at 10uM” value amounted to 5.43%.
Turning to `CCN(C(=O)c1cc(Cl)ccc1OC)c1ccccc1C`, the “hERG current change (%, negative = inhibition) at 10uM” value was -3.46%.
Then `O=C(O)C1=C[C@H](c2ccc3c(c2)OCO3)C[C@H](OCCCCO)O1`, with 9.18%; and `CCc1nnc(SCC(=O)Nc2ccc3c(c2)OCO3)o1`, with 21.7%.
In the case of `O=C(COC(=O)Cc1c(Cl)cccc1Cl)NCC1CCCO1` (stereo not drawn), the “hERG current change (%, negative = inhibition) at 10uM” value is recorded as 9.58%.
For `CC1CCC(CN2C(Nc3ccccc3)=NC[C@@H]2C)CC1` (stereo partly drawn), the “hERG current change (%, negative = inhibition) at 10uM” value is on record as -9.6%.
As to `CC(NC(=O)C(C(=O)c1cccc([N+](=O)[O-])c1)n1cc(Cl)ccc1=O)c1ccccc1` (stereo not drawn), the “hERG current change (%, negative = inhibition) at 10uM” value is listed as -15%.
As to `Cc1cccnc1NC(=O)c1ccc(COc2ccccc2)o1`, the “hERG current change (%, negative = inhibition) at 10uM” value is 3.37%.
Consider `Cn1cccc1/C=N/NC(=O)CNc1ccc2ccccc2c1`, for which the “hERG current change (%, negative = inhibition) at 10uM” value came out at 8.73%.
Turning to `S=C(NCc1ccccc1)Nc1ccc2ccccc2c1`, the “hERG current change (%, negative = inhibition) at 10uM” value stood at 12.4%.
As to `CC(=O)N[C@@H](Cc1c[nH]c2ccccc12)C(=O)NCCc1ccc(S(N)(=O)=O)cc1`, the “hERG current change (%, negative = inhibition) at 10uM” value stood at 11%.
With `O=C(CC12CC3CC(CC(C3)C1)C2)NCc1ccccc1`, the “hERG current change (%, negative = inhibition) at 10uM” value stood at 15%.
Consider `Fc1ccc(CSc2ccc(-c3ccco3)nn2)cc1`, for which the “hERG current change (%, negative = inhibition) at 10uM” value was 12.4%.
Take `Cc1ccc(NC(=S)NCc2ccccc2)cc1[N+](=O)[O-]`: the “hERG current change (%, negative = inhibition) at 10uM” value is -2.6%.
The value for `Cc1ccc2cc(C#N)c(N3CCN(C(=O)c4ccccc4)CC3)nc2c1` was -67.1%; that for `CS(=O)(=O)N1CCC(C(=O)Nc2ccc3c(c2)OCO3)CC1` was -7.81%; that for `COc1ccc(CCN(C)C(=S)Nc2ccc(SC(F)F)cc2)cc1OC` was -74.7%.
With `CC(C)(C)OC(=O)NCCCCCc1cn([C@@H](CO)C(=O)NCCCCCCCCCCC(=O)N2CCN(C(=O)OC(C)(C)C)CC2)nn1`, the “hERG current change (%, negative = inhibition) at 10uM” value is recorded as -2.09%.
Take `CN(CC(=O)Nc1cccc(F)c1)C(=O)c1ccc2c(=O)n3c(nc2c1)CCC3`: the “hERG current change (%, negative = inhibition) at 10uM” value is 14.9%.
Regarding `CCc1ccc(NC(=O)C(=O)N/N=C(\C)CC(=O)NCc2ccc(Cl)cc2)cc1`, the “hERG current change (%, negative = inhibition) at 10uM” value is -11.4%.
Consider `CN(C)c1ccc(NC(=O)/C=C/c2c(Cl)cccc2Cl)cc1`, for which the “hERG current change (%, negative = inhibition) at 10uM” value was 4.91%.
Then `Cc1ccc(S(=O)(=O)N(CC(=O)N2CCC(C)CC2)Cc2ccccc2F)cc1`, with -36.5%; and `CCOC(=O)c1nnn(-c2nonc2N)c1-c1ccc(OCC)cc1`, with -9.25%; and `COc1cc(OC)c(NS(=O)(=O)c2coc(C(N)=O)c2)cc1Cl`, with 13.5%.
On to `CC(C)(C)C1CCC(C(=O)NCC(c2cccs2)N2CCOCC2)CC1` (stereo not drawn), for which the “hERG current change (%, negative = inhibition) at 10uM” value is given as -9.21%.
In the case of `CC(C)[C@H](NC(=O)c1ccccc1F)C(=O)Nc1ccc(F)c(F)c1`, the “hERG current change (%, negative = inhibition) at 10uM” value is recorded as 8.12%.
Regarding `CC(=O)O[C@]1(C(C)=O)CC[C@H]2[C@@H]3C=C(C)C4=CC(=O)CC[C@]4(C)[C@H]3CC[C@@]21C`, the “hERG current change (%, negative = inhibition) at 10uM” value is -10.8%.
Turning to `CN(CC(=O)Nc1ccc(F)cc1)C(=O)COC(=O)CCN1C(=O)C2CC=CCC2C1=O` (stereo not drawn), the “hERG current change (%, negative = inhibition) at 10uM” value was determined as 20.6%.
As for `COc1ccccc1C(=O)Nc1cccc(Oc2c(F)c(F)c(F)c(F)c2F)c1`, the “hERG current change (%, negative = inhibition) at 10uM” value is 15.6%.
For `CCN(C(=O)COC(=O)C1CCN(S(=O)(=O)c2cccs2)CC1)c1ccccc1`, the “hERG current change (%, negative = inhibition) at 10uM” value turned out to be 22%.
Regarding `CC(OC(=O)c1ccco1)C(=O)NC1CCCC1` (stereo not drawn), the “hERG current change (%, negative = inhibition) at 10uM” value came to 3.02%.
Consider `CC[C@H](C)[C@H](NC(N)=O)C(=O)Nc1ccc(S(=O)(=O)NC(C)C)cc1`, for which the “hERG current change (%, negative = inhibition) at 10uM” value was 2.25%.
The value for `CCC(C)[C@H](NC(=O)Nc1cccc(Br)c1)C(=O)OC` (stereo partly drawn) was 0.886%; that for `Cc1nc2cc3ccccc3cc2n1C` was -11.1%; that for `c1ccc(-n2nnc(-c3cccnc3)n2)cc1` was 8.52%.
As for `CC(C)(C)c1ccc(C(=O)N/N=C/c2cccc(Cl)c2)cc1`, the “hERG current change (%, negative = inhibition) at 10uM” value worked out at 4.99%.
Then `CC(C)(C)c1cc(C(=O)N/N=C/c2cc3c(cc2Br)OCO3)n[nH]1`, with 11.1%; and `Nc1c(C(=O)NCCc2ccccc2)nnn1Cc1ccc(Br)cc1F`, with 9.55%.
As to `N#CC(C#N)=Cc1c[nH]c(=O)c(C#N)c1Nc1ccccc1`, the “hERG current change (%, negative = inhibition) at 10uM” value came to 16.1%.
For the compound `COc1ccc(OC)c(NC(=O)COc2coc(CN3CCCc4ccccc43)cc2=O)c1`, the “hERG current change (%, negative = inhibition) at 10uM” value is 7.53%.
For the compound `CC(=O)N(C(C)=O)c1ncnc2c1c(-c1ccc(Cl)cc1)nn2C(C)(C)C`, the “hERG current change (%, negative = inhibition) at 10uM” value was found to be 5.52%.
